According to PubChem BioAssay AID493208 (National Center for Advancing Translational Sciences (NCATS), 2011):
In all, about 44,000 compounds went through this assay and about 340 (0.77%) were called active. Not shown: some 5% with an inconclusive outcome. Calls come from the whole dose curve; as a rule, active = well fitted inhibition curve with a large enough effect; inconclusive = small, poorly fitted or top-dose-only effect; inactive = flat fitted curve, though single readings scatter. This is one part of the list.

Experiment: Acumen qHTS Assay for Inhibitors of the mTORC1 Signaling Pathway in MEF (Tsc2-/-, p53-/-) Cells: Sytravon;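 note: plate controls were DMSO for no effect and rapamycin for full effect; nearly all actives have a fitted effect of over 50% in size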
Details: phospho-rpS6 immunofluorescence/PI, 24 h; series mostly up to 38.3 µM; activity change, negative = inhibition: at the top concentration
Summary of the method: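 Read-out: phospho-S6 Alexa-488 intensity over PI intensity per well, scored as % active cells using thresholds from rapamycin (7.5 nM) and DMSO controls. Tsc2-/-, p53-/- MEFs exposed to compound for 24 h; PI cell count recorded as viability.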

Activity change, negative = inhibition, inactive:
CCc1ccccc1NC(=O)c1cc(-c2ccc(Cl)s2)nc2ccccc12 -0.69%
COc1ccc(OC)c(CNC(=O)CCCn2c(=O)c3cccn3c3cccnc32)c1 -1.37%
CCOc1ccccc1NC(=O)Cn1c(=O)n(Cc2ccc(OC)cc2)c(=O)c2oc3ccccc3c21 2.87%
COc1ccc(N(CC(=O)Nc2cc(OC)cc(OC)c2)S(=O)(=O)c2c(C)noc2C)cc1 -0.61%
COc1ccccc1-c1nnc(C2CCN(C(=O)c3ccccc3C)CC2)o1 -17.3%
Cc1cc2c(cc1S(=O)(=O)Nc1ccc(C(C)C)cc1)OCCN2C 0%
Cc1cccc(-n2c(C)cc(C(=O)C(=O)Nc3nncs3)c2C)c1 -2.21%
COc1ccccc1NC(=O)c1cc2c(=O)n(Cc3cccs3)ccc2nc1C -4.93%
Cc1cccc(-n2cnc3cc(C(=O)NCc4ccccc4Cl)ccc32)c1 -6.66%
COc1ccc(CCNc2ncnc3c2c(-c2ccccc2)cn3-c2ccc(Cl)cc2)cc1OC -2.85%
CCOC(=O)CSc1nc2ccc(NC(=O)c3ccc(Cl)cc3)cc2s1 2.76%
COC(=O)c1ccc(NC(=O)C2CCN(c3ncnc4c3nc3n4CCCCC3)CC2)cc1 -4.84%
COc1cc(CN(C(=O)c2ccc(OC(C)C)cc2)c2ccccn2)cc(OC)c1OC -15.6%
Cc1cc(C)cc(NC(=O)CSc2c(C(C)C)cnc3c2c(=O)n(C)c(=O)n3C)c1 -0.185%
Cc1cc(Nc2nc3ccccc3c3nnc(C)n23)ccc1Br -0.805%
Cc1cc(C)cc(Nc2cc(C(=O)NC3CCCCC3)c3ccccc3n2)c1 2.59%
CCOC(=O)c1ccccc1NC(=O)CSc1nnc(CC)n2c1cc1occc12 -10.4%
Fc1ccc(-c2cc3ncc4c(n3n2)-c2cc(Cl)ccc2OC4)cc1 2.61%
CCOC(=O)c1cc(C)n(CC2CCC(C(=O)Nc3ccc(OC)cc3)CC2)c1C (configuration not stated) -9.92%
Cc1cc(C)c(S(=O)(=O)Nc2ccc(-c3ccc(N4CCCCCC4)nn3)cc2)c(C)c1 -2.82%
Cn1cnnc1SCC(=O)Nc1ccc(C#N)cc1 -0.861%
COC(=O)c1ccc(OCC2c3cc(OC)c(OC)cc3CCN2C(=O)Cc2ccccc2)cc1 (configuration not stated) 0.767%
CN(CC(=O)NCc1ccccc1)S(=O)(=O)c1ccc2[nH]c3c(c2c1)CCCC3 2.84%
CCc1ccccc1NC(=O)C1(C)Cc2ccccc2C(=O)O1 (configuration not stated) -5.12%
CC(C)(C)C1CCc2c(sc(NC(=O)c3ccc(Cl)cc3)c2C(=O)NCc2ccco2)C1 (configuration not stated) -2.36%
COc1ccccc1N1CCN(c2ncnc3c2cnn3-c2cccc(Cl)c2)CC1 5.6%
CCN(Cc1ccccc1)S(=O)(=O)c1cc(C(=O)Nc2cc(Cl)cc(Cl)c2)ccc1F -14%
